# In ChEMBL document CHEMBL1201862, “PubChem BioAssay data set” (2004):
# System: NCI-H322M
# Assay: NCI tumour cell line growth inhibition, 48 h
row,Structure (SMILES),GI50
1,N/C(S)=N/N=C/c1ncccc1O,inactive: 2.97 µM
2,C(=C\Nc1ccc(-c2ccccc2)cc1)/C=N/c1ccc(-c2ccccc2)cc1,inactive: > 100 µM
3,FC(F)(F)c1cccc(-c2nc3nc(Cl)c(Cl)nc3[nH]2)c1,inactive: 2.3 µM
4,COc1ccc2c(c1)NC1(O)c3ccccc3C(=O)C21O (stereo unspecified),inactive: > 100 µM
5,CC(=O)N(O)Cc1ccccc1,inactive: > 100 µM
6,CC(C)=CCC/C(C)=C\CCC1(C)OC(=O)C2CC21 (stereo unspecified),inactive: > 100 µM
7,CO[C@@]12C[C@@H](C)[C@]34O[C@H]3C[C@]3(C)O[C@]43CC1=C(C)C(=O)O2,inactive: > 100 µM
8,CC(=O)OC(C)(C)/C=C/C(=O)[C@](C)(O)[C@H]1[C@H](O)C[C@@]2(C)[C@@H]3CC=C4[C@@H](C[C@H](O)[C@H](O)C4(C)C)[C@]3(C)C(=O)C[C@]12C,active: 1.09 µM
9,O/N=C1\SC(=N\O)/C(=N/O)S\C1=N/O,inactive: > 100 µM
10,Clc1c(Cl)c(Cl)c2c(nnn2C2CCCO2)c1Cl (stereo unspecified),inactive: 46.9 µM
11,COC(=O)C1C(=O)N(C)C(=O)N2CCCC12 (stereo unspecified),inactive: > 100 µM
12,Cc1n2nc(N)sc2n[n+]1CC(=O)c1ccccc1,inactive: 25.4 µM
13,O=C1CCCCC12CCC/C2=N\O (stereo unspecified),inactive: > 100 µM
14,CCN(CC)C1Oc2cc3c(cc2C(c2cccc(OC)c2OC)C1C)OCO3 (stereo unspecified),inactive: 13.8 µM
15,CCOC(=O)OC1C(Br)C2CCC1(C)C2(C)C (stereo unspecified),inactive: 15.9 µM
16,O=[N+]([O-])c1ccc(-c2nc3ccccc3o2)cc1,inactive: > 100 µM
17,CC(C)(CN1CCCCC1)C(=O)/C=C/c1ccc(Br)cc1,inactive: 3.48 µM
18,COc1cccc(/C=C/c2cnc3ccccc3n2)c1OC,inactive: > 100 µM
19,CCOC(=O)[C@@H]1C[C@H]1c1ccc(O)c(O)c1,inactive: 79.1 µM
20,COc1ccc(/C=C2\CNC/C(=C\c3ccc(OC)cc3)C2=O)cc1,inactive: 77.4 µM
21,CCCCCCCCCC(=O)CC(=O)c1c(O)cc(O)cc1O,inactive: 33.7 µM
22,CC(C)(C)C1CCC2c3c([nH]c4ccccc34)C3C(=O)N(c4ccc5c(c4)C(=O)c4ccccc4C5=O)C(=O)C3C2C1 (stereo unspecified),inactive: > 100 µM
23,CSc1nc2c(c(=O)[nH]1)N=C(c1ccc(Cl)cc1)CC(c1ccccc1)N2 (stereo unspecified),inactive: 17.5 µM

row,Structure (SMILES),GI50
1,COc1cc2c(cc1OC)[C@@H]([C@H](O)c1ccccc1)NCC2,inactive: > 100 µM
2,COc1ccc(/C=N/n2c(Cc3ccccc3)n[nH]c2=O)c(OC)c1,inactive: > 60.5 µM
3,COC(=O)/C(=N\NC(N)=O)C(C(=O)C(=O)Nc1ccccc1C(=O)OC)c1nc2ccc(C(=O)c3ccccc3)cc2nc1O (stereo unspecified),inactive: > 100 µM
4,CCN1CC2=C(N=c3s/c(=C\c4ccc(Cl)cc4)c(=O)n3C2c2ccc(Cl)cc2)/C(=C/c2ccc(Cl)cc2)C1 (stereo unspecified),inactive: > 100 µM
5,Cc1cccc2c1C(=O)/C(=C/c1ccccc1C(=O)O)C2,inactive: > 100 µM
6,Cc1c(C)c(C)c(CSC(=N)N)c(C)c1C,inactive: 15.4 µM
7,CN(CC(=O)O)S(=O)(=O)c1ccc2ccccc2c1,inactive: > 100 µM
8,CC(=O)NC1C(O)C(O)C(CO)OC1n1ncc(=O)[nH]c1=O (stereo unspecified),inactive: > 100 µM
9,O=C(CC1(O)C(=O)Nc2ccc(Br)cc21)c1ccc(Cl)cc1Cl (stereo unspecified),inactive: 50.9 µM
10,CC(=O)Oc1ccc2c(c1)c1c(=O)oc(N(C)C)nc1n2Cc1ccccc1,inactive: > 100 µM
11,CC1(C)CCC[C@@]2(C)C1C(=O)[C@@H]1O[C@]1(C)[C@@H]2CO (stereo partly specified),inactive: 42.3 µM
12,CC(=O)N(C)CCc1c[nH]c2ccccc12,inactive: > 100 µM
13,COc1ccc(CNc2cnc3cc(N)ccc3n2)cc1,inactive: > 100 µM
14,COc1ccc(/C=C/COC(C)=O)cc1OC,inactive: > 100 µM
15,C[n+]1c2ccccc2c(C(=O)Nc2ccc(S(=O)(=O)Nc3ccnn3-c3ccccc3)cc2)c2ccccc21,inactive: > 100 µM
16,CN(C)c1ccc(/C=C2\N=C(N/N=C/c3ccccc3)NC2=O)cc1,inactive: > 100 µM
17,CC(=O)c1ccc(NC(=O)/C(Cc2ccccn2)=N/NC(=O)C[N+](C)(C)C)cc1,inactive: > 100 µM
18,S=C(N/N=C(\c1ccccc1)c1ccccn1)NC1CCCCC1,inactive: 8.63 µM
19,Cc1oc2c(c1C(=O)c1ccccc1)C(=O)c1ccccc1C2=O,inactive: 16.7 µM
20,O=c1[nH]cc(-c2c[nH]c3ccccc23)nc1-c1c[nH]c2ccccc12,inactive: 15.6 µM
21,CC(CC(=O)Nc1ccc(NC(=O)CC(C)/N=N\C(N)=O)cc1)/N=N\C(N)=O (stereo unspecified),inactive: > 100 µM
22,CC(=O)Oc1cc(C)c(OC(C)=O)c2c1[C@H]1CC[C@]3(C)[C@@H](OC(C)=O)CC[C@H]3[C@@H]1CC2,inactive: 15.4 µM
23,CC1(C)C2CCC1(C)C(N/C(=C(/C(Cl)=C(Cl)Cl)[N+](=O)[O-])n1nnc3ccccc31)C2 (stereo unspecified),inactive: 36.6 µM

row,Structure (SMILES),GI50
1,COc1ccc2c3ccc4c(c3n(C)c2c1)C(=O)C=CC4=O,inactive: > 100 µM
2,O=C(CC1(O)C(=O)Nc2c(Cl)cc(Cl)cc21)c1ccc(Br)cc1Br (stereo unspecified),inactive: 25.9 µM
3,Cc1ccc2c(c1)C=CC1(O2)N(c2ccccc2)C(=S)OC1(C)C (stereo unspecified),inactive: > 100 µM
4,COc1ccc(C(=O)O)c2c(=O)c3ccccc3[nH]c12,inactive: > 100 µM
5,COc1ccc(C(=O)c2c(-c3ccccc3NC(=O)C(F)(F)F)[nH]c3ccccc23)cc1,inactive: 5.92 µM
6,CCc1nc(N)nc(N)c1-c1ccc2c(c1)nnn2CCc1ccccc1,inactive: 18 µM
7,Cc1cc(O)nc(NN2C(Cl)C(=O)C2c2ccc(Cl)cc2)n1 (stereo unspecified),inactive: 19.7 µM
8,O=C1N/C(=N/N=C/C(O)C(O)C(O)C(O)CO)N/C1=C\c1c[nH]c2ccccc12 (stereo unspecified),inactive: > 100 µM
9,O=S1(=O)c2ccccc2N2C(c3ccccc3)=NOC2(c2ccccc2)CC1c1ccc(Br)cc1 (stereo unspecified),inactive: > 100 µM
10,COC(=O)/C=C\C(C#N)(C#N)/N=C/c1ccc(Br)cc1,inactive: 18.3 µM
11,COc1ccccc1/C=C(/C)[N+](=O)[O-],inactive: 16.3 µM and inactive: 9.66 µM
12,NNC(=O)CCC(NS(=O)(=O)c1ccc(Cl)cc1)C(=O)NN (stereo unspecified),inactive: > 100 µM
13,Cc1c2n(c3ccccc13)S(=O)(=O)c1ccccc1-2,inactive: 23.1 µM
14,N/C(COc1ccc(Cl)cc1)=N\NC(=O)c1ccncc1,inactive: > 100 µM
15,Cc1c(C(=O)c2ccc(N)c3ccccc23)c2ccccc2n1CCN1CCOCC1,inactive: 5.93 µM
16,CC1=NN(c2nc(N)nc(COCc3nc(N)nc(N4N=C(C)CC4(C)C)n3)n2)C(C)(C)C1,inactive: > 100 µM
17,COCCCNC(=O)C1=C(C)NC(C)=C(C(=O)NCCCOC)C1,inactive: > 100 µM
18,CC12CN(CC[N+](C)(C)C)CC1(C)C1CCC2O1 (stereo unspecified),inactive: > 100 µM
19,Cn1c(O)c(C(=O)Nc2ccc([N+](=O)[O-])cc2)c(=O)n(C)c1=S,inactive: 2.59 µM
20,CCOC(=O)c1nnc2c(C#N)c(-c3ccccc3)c(C)n2c1N,inactive: 58.3 µM
21,COc1cc(S(=O)(=O)Nc2ccc(-c3csc(N4C(=O)C(Cl)C4c4cccc(Oc5ccccc5)c4)n3)cc2)ccc1Cl (stereo unspecified),inactive: > 100 µM
22,CCN(CC)CC1CCCCN1CC(=O)N1c2ccccc2NC(=O)c2ccccc21 (stereo unspecified),inactive: > 100 µM
23,Cc1ccc([N+](=O)[O-])cc1S(=O)(=O)Nc1ccc(C2=NN(S(=O)(=O)c3cc([N+](=O)[O-])ccc3C)C(c3ccccc3)C2)cc1 (stereo unspecified),inactive: 31.7 µM

row,Structure (SMILES),GI50
1,Cc1ccc(S(=O)(=O)N/N=C\c2c3ccccc3[n+](C)c3ccccc23)cc1,inactive: 10 µM
2,COC(=O)[C@H]1COC(=S)N1C(=O)[C@@H](C)[C@H](O)C(C)C,inactive: > 100 µM
3,O=c1[nH]c(Nc2nc3ccccc3[nH]2)nc(O)c1Cc1ccccc1,inactive: > 100 µM
4,Cc1ccc2nc3c(C)cc(=O)cc-3sc2c1,inactive: 37.1 µM
5,CC(=O)/C(=C\I)c1ccccc1,inactive: 12.7 µM
6,CN(C)CC1CCCC/C1=N/O (stereo unspecified),inactive: > 100 µM
7,CN1C2=C(CC3=C1CC(C)(C)CC3=O)C(=O)CC(C)(C)C2,inactive: > 100 µM
8,O=c1c2cc(-c3ccccc3)cnc2sn1-c1ccc(Oc2ccccc2)cc1,inactive: 39.1 µM
9,N#Cc1ccc(Nc2cnc3ccc(N)cc3n2)cc1,inactive: > 100 µM
10,CSc1s[s+]c(SC)c1-c1ccccc1,inactive: 38.2 µM
11,C=CC1(CC)/C(=N\O)C(CC)(CC)C(=O)N1O (stereo unspecified),inactive: > 100 µM
12,CN(Cc1cnc2nc(N)nc(N)c2n1)c1ccc(C(=O)NC(CCC(=O)NC(P(=O)(O)O)P(=O)(O)O)C(=O)O)cc1 (stereo unspecified),inactive: > 100 µM
13,COc1cc(/N=N\c2ccc(OC)c(S(=O)(=O)O)c2)c(C)cc1/N=N\c1ccc(/C=C/c2ccc(/N=[N+](/[O-])c3ccc(/C=C/c4ccc(/N=N/c5cc(C)c(/N=N\c6ccc(OC)c(S(=O)(=O)O)c6)cc5OC)cc4S(=O)(=O)O)c(S(=O)(=O)O)c3)cc2S(=O)(=O)O)c(S(=O)(=O)O)c1,inactive: > 100 µM
14,CC(=O)O[C@H]1C=CC23OC(=O)[C@]1(C)[C@H]2[C@H](C(=O)O)C12CC(=O)[C@@](CO)(CC[C@H]13)C2,inactive: > 100 µM
15,CC(C)CCCC(C)[C@H]1CCC(C2C[C@@H](O)[C@@H]3CC(O)[C@@H](O)C[C@]3(CO)C2=O)[C@]1(C)CCO (stereo partly specified),inactive: 28.7 µM
16,CN(Cc1cnc2nc(N)nc(N)c2n1)c1ccc(C(=O)NCS(=O)(=O)O)cc1,inactive: > 100 µM
17,NC(C/C=C/P(=O)(O)O)C(=O)O (stereo unspecified),inactive: > 100 µM
18,O=C1C(=O)c2cc([N+](=O)[O-])ccc2-c2ccc([N+](=O)[O-])cc21,inactive: 1.95 µM
19,COc1ccc(-c2cc(=O)c3c(O)cc(O)cc3o2)c(OC)c1OC,inactive: > 100 µM
20,COc1ccc(-c2nc3ccc(C)cc3o2)c(OC)c1,inactive: 4.23 µM
21,O=C(CCCn1ccnc1[N+](=O)[O-])NCCn1cnc([N+](=O)[O-])n1,inactive: > 100 µM
22,CCN(CC)CCNc1ccc2ncn3c4c(OC)ccc(OC)c4c(=O)c1c23,inactive: 10.6 µM

# Several values for one entry are separate records, joined by “and”; a condition that tells them apart may be missing. Equal entries are not always repeated.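 Growth conditions: 96-well plates. Treatment: test compound, 48 hours, 5 concentrations. Analysis: linear interpolation between bracketing concentrations; unreached endpoints set to highest concentration. GI50 = concentration required for 50% inhibition of growth.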 Activity calls are given as the source filed them. Cut-off read from the data, not from the text of the source: active = GI50 up to about 1.1 µM and inactive = higher.
